# Data from PubChem BioAssay AID504832 (National Center for Advancing Translational Sciences (NCATS), 2011).
# Several values for one entry are separate records, joined by “and”; a condition that tells them apart may be missing. Equal entries are not always repeated. The whole screen tested about 310,000 compounds, of which about 18,000 (5.8%) were called active. The shares of active, inactive and inconclusive entries below differ from those in the screen. The call rests on the fitted dose curve; in most records, active means well fitted inhibition curve with a large enough effect; inconclusive means small, poorly fitted or top-dose-only effect, or another doubt; inactive means no such curve, though single readings can be large or run the other way. A potency beside an inconclusive call is a rough fit, not a confirmed value.
# Assay: Primary qHTS for delayed death inhibitors of the malarial parasite plastid, 48 hour incubation
# Conditions: P. falciparum luciferase growth in erythrocytes; series mostly up to 28.7 µM; activity change, negative = inhibition: at the top concentration
# Method in brief: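 Compounds are pin-transferred into medium, infected erythrocytes (2% hematocrit, 0.1% parasitemia final) are added, and plates sit one parasite generation at 37 C in 5% CO2. Detection reagent is then added and luminescence measured.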
# On the % scale 0 is the no-effect control and ±100 the full control effect; potency means the concentration at half of the fitted maximal effect; tags describe the fitted curve by direction and shape.
SMILES,Potency,"activity change, negative = inhibition"
Cc1c(C(=O)Nc2cc(S(=O)(=O)N3CCOCC3)ccc2N2CCN(C)CC2)oc2ccccc12,"inconclusive: 8.28 µM [inhibitor, partial curve, poor fit]",–
COc1ccc(CNC(=O)CN(c2ccc(OC)cc2)S(=O)(=O)c2c(C)[nH]c(=O)[nH]c2=O)cc1,–,inactive: 17.6%
Cc1nc2cc([N+](=O)[O-])ccc2c(=O)n1-c1ccccc1[N+](=O)[O-],–,inactive: 20.3%
O=C(Cc1cccc2ccccc12)NC(NC(=S)Nc1ccccc1Cl)C(Cl)(Cl)Cl (configuration not stated),"inconclusive: 14.7 µM [inhibitor, single point]",–
CCN(CC(=O)Nc1cc(S(=O)(=O)N2CCCCC2)ccc1C)Cc1ccccc1,"inconclusive: 10.4 µM [inhibitor, single point]",–
COCCNC(=O)c1ccc(N2CCCCC2)c(NS(=O)(=O)c2ccc(C)cc2)c1,active: 5.22 µM,–
CC(NC(=O)NC(=O)c1ccc(Cl)cc1Cl)C1CC1 (configuration not stated),–,inactive: 29.3%
COc1cc([N+](=O)[O-])ccc1NC(=O)CCCOc1cccc(C)c1,–,inactive: 58.4%
FC(F)(F)c1ccc(CN2CCNCC2)cc1,–,inactive: 2.93%
c1ccc(Nc2nc(NCC3CCCO3)c3ccccc3n2)cc1 (configuration not stated),"inconclusive: 2.08 µM [inhibitor, full curve, poor fit]",–
CCN(CC)CCNC(=O)c1cc2c(=O)n(CC)c3ccccc3c2s1,"inconclusive: 18.5 µM [inhibitor, single point]",–
Oc1ccc2ccccc2c1C=Nc1cc(C(F)(F)F)ccc1N1CCCC1,"inconclusive: 10.4 µM [inhibitor, single point]",–
Clc1ccc(Nc2ccccc2)nn1,–,inactive: 17.9%
Cn1c(=O)c2c(nc(SCc3cccnc3)n2Cc2ccccc2)n(C)c1=O,"inconclusive: 0.738 µM [inhibitor, full curve, poor fit]",–
COc1cc2ccccc2cc1C(=O)N(CCN(C)C)c1nc2c(F)cccc2s1,"inconclusive: 18.5 µM [inhibitor, single point]",–
CCCCN(CCCNC(=O)C1CCN(S(=O)(=O)CC)CC1)c1ccccc1,"inconclusive: 18.5 µM [inhibitor, single point]",–
Cc1ccc(Nc2c(-c3ccc(N4CCOCC4)cc3)nc3ncccn23)cc1C,"inconclusive: 13.1 µM [inhibitor, single point]",–
CN(C)CCCN1c2ccccc2Sc2ccccc21,"inconclusive: 5.1 µM [inhibitor, single point] and inconclusive: 13.1 µM [inhibitor, single point]",–
CCCn1c2ccccc2c2cnn(CC(=O)NC3CCCCC3)c(=O)c21,–,inactive: 15.5%
O=C(Nc1ccc(Nc2ccccc2)cc1)c1c(F)c(F)c(F)c(F)c1F,–,inactive: 44.7%
COc1ccc(C2(C)CC(C)(C)Nc3ccccc32)cc1 (configuration not stated),"inconclusive: 18.5 µM [inhibitor, single point]",–
CCN1CCN(C(=O)c2ccc(N3CC4CC(C3)c3cccc(=O)n3C4)c(NC(=O)c3cc(OC)cc(OC)c3)c2)CC1 (configuration not stated),"inconclusive: 18.5 µM [inhibitor, single point]",–
COc1ccc(N2CCN(C(=O)c3cn(Cc4ccccc4)nc3-c3cccnc3)CC2)cc1,"inconclusive: 5.86 µM [inhibitor, partial curve, poor fit]",–

SMILES,Potency,"activity change, negative = inhibition"
COc1ccc(NC(=O)c2c[nH]n3c(=O)cc(C4CCN(C(=O)OC(C)(C)C)CC4)nc23)cc1Cl,"inconclusive: 9.28 µM [inhibitor, partial curve, poor fit]",–
O=C(CCc1nnc2n(Cc3ccc(Cl)cc3)c(=O)c3ccccc3n12)NCCCN1CCOCC1,"inconclusive: 11.7 µM [inhibitor, partial curve]",–
CCOC(=O)c1c(C)c(C)n(Cc2cccc(OC)c2OC)c1C,active: 11.7 µM,–
O=C(CCN1C(=O)c2cccc3cccc(c23)C1=O)NCc1ccco1,–,inactive: 11.8%
COc1ccc(CCNC(C(=O)Nc2cc(C)cc(C)c2)c2ccccc2)cc1 (configuration not stated),"inconclusive: 13.1 µM [inhibitor, single point]",–
Cc1ccc(C(=O)N2CCCC(c3nc4c(nnn4Cc4ccccc4)c(=O)[nH]3)C2)cc1 (configuration not stated),active: 10.4 µM,–
CC1(c2ccc(OC(F)F)cc2)NC(=O)N(CC(=O)Nc2ccc(OC(F)F)cc2)C1=O (configuration not stated),–,inactive: 6.88%
O=C(NC1CCCCC1)Oc1ccccc1,–,inactive: 57%
CC(C)CN(C(=O)CN1CCN(S(=O)(=O)c2ccc3ccccc3c2)CC1)c1c(N)n(CC(C)C)c(=O)[nH]c1=O,"inconclusive: 9.28 µM [inhibitor, partial curve, poor fit]",–
COC(=O)c1sccc1NC(=O)CC1C(=O)NCCN1C(=O)c1ccc(F)cc1 (configuration not stated),–,inactive: -21.2%
CC1(C)CC(=O)c2cc(OCC(=O)NCCCN3CCN(c4ccccc4F)CC3)ccc2O1,"inconclusive: 18.5 µM [inhibitor, single point]",–
CCCCn1c2ccc(F)cc2c2nnc(SCCN3CCOCC3)nc21,"inconclusive: 8.28 µM [inhibitor, partial curve]",–
Cc1cc(C)n2nc(C(=O)N/N=C/c3cn(C)nc3C)nc2n1,–,inactive: 23.8%
CC(=O)c1ccc(NC(=O)C(C)OC(=O)c2cccc(-n3cnnn3)c2)cc1 (configuration not stated),–,inactive: -0.497%
CCCN(CC(=O)Nc1ccccc1C)C(=O)c1ccc(COc2ccccc2)cc1,"inconclusive: 0.0738 µM [inhibitor, full curve, poor fit]",–
c1ccc(-c2nnnc3ccccc23)cc1,–,inactive: -0.818%
Cc1cc(C)cc(OCCNS(=O)(=O)c2cccs2)c1,"inconclusive: 7.38 µM [inhibitor, partial curve]",–
Oc1c(N=NC(=S)Nc2ccccc2F)c2ccccc2n1Cc1ccc(F)cc1,active: 2.08 µM,–
C[C@@H]1CC=C[C@H]2[C@H]1C(=O)N(Cc1ccccc1)[C@H]2c1ccc(F)c(-c2ccc(N(C)C)cc2)c1,"inconclusive: 2.08 µM [inhibitor, full curve, poor fit]",–
CCC(C)(C)C1CCC2(CC1)NC(=O)N(CC(=O)N(C)CC(=O)Nc1ccccc1C(F)(F)F)C2=O (configuration not stated),–,inactive: 3.44%
C/C=C/c1ccc(OCC(=O)N(C)CC(=O)Nc2ccc(F)cc2)c(OC)c1,–,inactive: 2.3%
O=C(COc1cccc(Cl)c1)Nc1nc(-c2ccc(S(=O)(=O)N3CCOCC3)cc2)cs1,active: 8.28 µM,–
CC(C)(C)OC(=O)NCCCC[C@H](NC(=O)c1nc[nH]c1C(=O)NCc1ccc(CNC(=O)OC(C)(C)C)cc1)C(=O)OC(C)(C)C,"inconclusive: 10.4 µM [inhibitor, partial curve]",–

SMILES,Potency,"activity change, negative = inhibition"
COc1ccc(C(=O)CC(Nc2ccc([N+](=O)[O-])cc2)c2ccc(Cl)cc2)cc1 (configuration not stated),active: 3.29 µM,–
Cc1ccc(-c2cc(=O)c3cc(C)ccc3[nH]2)cc1,–,inactive: -6.14%
CC/C(=N\NC(=O)c1c[nH]c2ccccc12)c1cccs1,"inconclusive: 3.7 µM [inhibitor, partial curve]",–
COc1ccc(N2CC(O)(c3ccc(OC(F)F)cc3)[N+]3=C2CCCC3)cc1 (configuration not stated),"inconclusive: 8.28 µM [inhibitor, partial curve]",–
COCc1cc(C)nc2sc3c(=O)n(-c4cccc5ccccc45)nnc3c12,"inconclusive: 9.28 µM [inhibitor, partial curve]",–
CCOC(=O)N1CCN(S(=O)(=O)c2cccs2)CC1,–,inactive: -9.96%
O=C(COc1ccc(S(=O)(=O)N2CCOCC2)cc1)NCCc1ccccc1,"inconclusive: 9.28 µM [inhibitor, single point]",–
COc1ccc(N2C(=O)[C@@H]3[C@H](C2=O)[C@H]2c4ccccc4C=CN2[C@@H]3C(C)=O)cc1,–,inactive: -9.36%
Cc1cc(C(C)(C)C)c(O)c(C)c1CC1=NCCN1,"inconclusive: 19 µM [inhibitor, single point] and inconclusive: 10.4 µM [inhibitor, single point]",–
COc1ccc(C)cc1NS(=O)(=O)c1ccc2c(c1)oc(=O)n2C,–,inactive: 0.403%
CCOC(=O)C1CCN(c2c(NCc3ccc(C(=O)NCCC(C)C)cc3)c(=O)c2=O)CC1,"inconclusive: 1.47 µM [inhibitor, full curve, poor fit]",–
O=C(CC1SC(=Nc2ccc3c(c2)OCCO3)NC1=O)Nc1ccc(F)cc1F (configuration not stated),"inconclusive: 18.5 µM [inhibitor, single point]",–
CCN(C(=O)CN1C(=O)NC(c2ccccc2)(c2ccc(C)c(C)c2)C1=O)C1CCS(=O)(=O)C1 (configuration not stated),"inconclusive: 9.28 µM [inhibitor, partial curve]",–
Cc1cc(C)c(S(=O)(=O)N2CCN(C(=O)C(C)Cn3nc(C)nc3C)CC2)c(C)c1 (configuration not stated),"inconclusive: 14.7 µM [inhibitor, partial curve, poor fit]",–
CSc1nc(N)nc(C2CC2)n1,–,inactive: 143%
COC(=O)c1sccc1NC(=O)CSc1nnnn1-c1ccccc1F,"inconclusive: 18.5 µM [inhibitor, single point]",–
Cc1nc2c(-c3ccccc3)c(C)nn2c(C)c1CCC(=O)NCc1ccco1,"inconclusive: 11.7 µM [inhibitor, partial curve]",–
CCOc1ccc(NC(=O)C23CC4CC(C2)CC(c2ccccc2)(C4)C3)cc1,"inconclusive: 8.28 µM [inhibitor, partial curve, poor fit]",–
CC(C)c1ccc(OCC(=O)NNC(=O)c2cnccn2)cc1,"inconclusive: 10.4 µM [inhibitor, single point]",–
COc1ccc(Nc2c3c(c(C#N)c4nc5ccccc5n24)CCC3)cc1,"inconclusive: 2.62 µM [inhibitor, full curve, poor fit]",–
CCOC(CNC(=O)c1ccc2c(c1)nc(C)n2-c1cccc(F)c1)OCC,"inconclusive: 37 µM [inhibitor, partial curve, poor fit]",–
